Target: T1, recombinant IL-17 (baculovirus, Examples 33/34) (human)
T1 construct: also called soluble IL-17; immobilized IL-17
Assay: SPR (BIAcore 1000), IL-17 immobilized on CM5 chip, IL-17R ECD in solution, 1:1 model

B1: IL-17R extracellular domain ([…]), baculovirus, Examples 33/34 (receptor)
chain: not shown
notes: range […]; also called IL-17R ECD
- Kd: 72 nM
- koff: 0.00067 s⁻¹
- kon: 9300 M⁻¹ s⁻¹

Reference: US20030203451A1 (Genentech, published 2003)
